Measured values from PubChem BioAssay AID445 (National Center for Advancing Translational Sciences (NCATS), 2006).
In all, about 110,000 compounds went through this assay and about 40 (0.04%) were called active. Inconclusive results, whose numbers are uncertain, are shown with a selection of clear calls. The call rests on the fitted dose curve; in most records, active means well fitted curve in the direction sought with a large enough effect in the signal ratio (not every such curve was filed as active); inconclusive means small, poorly fitted or top-dose-only effect, or a change in a side signal; inactive means flat fitted curve, though single readings scatter; the % refers to the signal ratio. Potencies beside an inconclusive call are fits to weak or partial responses and may not hold up.

experiment: IkB Signaling; conditions: ABC-DLBCL IkBa-CBG/CBR dual luciferase ratio (green luciferase fused to IkBa over red control in OCI-Ly3 lymphoma cells), 4 h; IkBa stabilization activation: at 57.1 µM (top of the series), scaled: untreated 0%, proteasome inhibitor 100% unless noted;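 on IkBa stabilization activation: 0% = basal untreated cells and 100% = reference inhibitor full response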
Outline: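 In this assay, an IκBα–CBG68 fusion accumulates when IKK-driven degradation is blocked; native CBR normalizes for cell number. OCI-Ly3 cells were treated 4 h with compound and doxycycline, then green and red light read after Chroma-Glo addition.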
Potency means the concentration at half of the fitted maximal effect.

| Structure (SMILES) | IkBa stabilization activation | Potency |
| --- | --- | --- |
| Cc1cc(C)cc(NC(=O)N2CCC(C(N)=O)(N3CCCCC3)CC2)c1 | inconclusive: 1.1% [signal inhibitor] | – |
| COc1cc(C(c2nnnn2C(C)(C)C)N2CCN(c3nc4ccccc4s3)CC2)ccc1O (centres undefined) | – | inconclusive: 31.6 µM [rising, partial curve] |
| COc1ccc(N2CC(NC(=O)C(=O)c3c[nH]c4ccccc34)CC2=O)cc1 (centres undefined) | inconclusive: 5.09% [signal inhibitor] | – |
| CCN(CC)c1cc(C)c2cc(NC(=O)/C=C/c3ccccc3Cl)ccc2n1 | inconclusive: 3.83% [signal inhibitor] | – |
| COc1ccc(CNC(=O)CC(C)n2nc(C)cc2C)cc1 (centres undefined) | inconclusive: -1.87% [signal inhibitor] | – |
| O=C(CCSCc1cccc(Cl)c1)NCc1ccccc1Cl | inconclusive: 2.83% [signal inhibitor] | – |
| CN1C(=O)c2ccc(NC(=O)c3c(F)c(F)c(F)c(F)c3F)cc2C1=O | inconclusive: 12.7% [signal inhibitor] | – |
| O=c1c(N2CCN(c3ccccc3)CC2)csc2ccc(Cl)cc12 | inconclusive: 2.08% [signal inhibitor] | – |
| CC1CCCN(c2ncnc3c2cnn3-c2ccc(F)cc2)C1 (centres undefined) | inactive | – |
| COCCn1c(=O)[nH]c2cc(C(=O)N3CCN(c4ccc(Cl)cc4)CC3)ccc2c1=O | inconclusive: 9.29% [signal inhibitor] | – |
| Cc1ccc(C)c(N2CCN(C(=O)CCCn3c(=S)[nH]c4cc5c(cc4c3=O)OCO5)CC2)c1 | inconclusive: 10.2% [signal inhibitor] | – |
| Cc1ccc(CN2CCC(CNC(=O)c3cnn(-c4ccccc4)c3C3CCN(C(=O)OC(C)(C)C)CC3)CC2)cc1 | inconclusive: -1.03% [signal inhibitor] | – |
| COc1cccc(-c2nccc(NCc3cccs3)n2)c1 | inactive: 1.57% [at 11.4 µM, scaled: untreated 0%, proteasome inhibitor 100%] | – |
| O=C(CS(=O)(=O)Cc1ccccc1)N1CCN(Cc2ccc3c(c2)OCO3)CC1 | inactive | – |
| COc1ccc(NC(=O)c2oc3ccc(S(=O)(=O)N4CCCCC4)cc3c2C)cc1Cl | inconclusive: -2.11% [signal inhibitor] | – |
| COc1ccc(NC(=O)c2cc(C(C)=O)n3ccccc23)cc1 | inconclusive: 15.1% [signal activator] | – |
| N#CC1=C(N)SC(N)=C(C#N)C1c1cccc(Oc2ccccc2)c1 | – | inconclusive: 25.1 µM [rising, partial curve] |
| CCOc1cc2[nH]c(=O)n(Cc3ccc(C(=O)N4CCN(c5ccccc5)CC4)cc3)c(=O)c2cc1OCC | inconclusive: 1.89% [signal inhibitor] | – |
| COc1cc2c(=O)n(Cc3ccco3)c(=O)n(CC(=O)Nc3ccc(F)cc3)c2cc1OC | inconclusive: 13.8% [signal inhibitor] | – |
| Cc1nc(-c2ccc(Cl)cc2)sc1CCNC(=O)C(=O)Nc1ccc2c(c1)OCCO2 | inactive | – |
| O=c1cc(-c2ccccc2O)oc2c(O)c(O)ccc12 | inactive: 4.47% [at 11.4 µM, scaled: untreated 0%, proteasome inhibitor 100%] | – |
| O=C(CSc1nc(=O)n(Cc2cccnc2)c2c1CCC2)Nc1cccc(Cl)c1 | inconclusive: 4.29% [signal inhibitor] | – |
| Cc1ccc(Nc2nc(CSc3nnc(-c4cccs4)o3)cs2)cc1 | inconclusive: 2.56% [signal inhibitor] | – |

| Structure (SMILES) | IkBa stabilization activation | Potency |
| --- | --- | --- |
| O=C(CNC(=O)c1ccccc1C(=O)O)c1ccccc1 | inconclusive: 15.6% [signal inhibitor] | – |
| COc1ccc(CCN2CCC(CNC(=O)c3cnn(-c4ccc(C)cc4)c3C3CCN(C(=O)OC(C)(C)C)CC3)CC2)cc1 | inconclusive: 0.559% [signal inhibitor] | – |
| CCNc1ncc2nc(C)c(=O)n(Cc3ccc(F)cc3)c2n1 | inactive: 2.12% [at 11.4 µM, scaled: untreated 0%, proteasome inhibitor 100%] | – |
| CC(=O)Nc1cccc(NC(=O)CSc2ncc(-c3ccc(Cl)cc3)n2Cc2ccco2)c1 | inconclusive: 0.0279% [signal inhibitor] | – |
| COc1ccc(C2CC(=O)N(Cc3ccccc3C)c3c2c(C)nn3-c2nc(C)cc(C)n2)c(OC)c1 (centres undefined) | inconclusive: 3.47% [signal inhibitor] | – |
| O=C(c1cccc(-c2nnc(-c3ccccc3)o2)c1)N1CCCCC1 | – | inconclusive: 25.1 µM [signal inhibitor, single point] |
| Cc1ccccc1-n1c(SCC(=O)Nc2ccc(Cl)cc2Cl)nc(O)cc1=O | inconclusive: 3.46% [signal inhibitor] | – |
| CC(C)(C)c1ccc(-c2nc(SCCOc3ccc(Cl)cc3)n3[nH]c(=O)cc3n2)cc1 | inactive | – |
| Cc1cccc(N(C)S(=O)(=O)c2ccc(-c3cc(C)no3)s2)c1 | inconclusive: 16.8% [signal activator] | – |
| CCc1sc(Nc2cccc(C)c2)nc1-c1cc2cccc(OC)c2oc1=O | inconclusive: 1.43% [signal inhibitor] | – |
| Cc1ccc(S(=O)(=O)N2CCc3cc(C(=O)N(C)Cc4ccccc4)ccc32)cc1 | inconclusive: 0.754% [signal inhibitor] | – |
| CCNc1oc(COc2cccc(C)c2)nc1C#N | inactive | – |
| COc1ccc(OC)c2sc(N3CCN(c4ccccc4)CC3)nc12 | inactive | – |
| COc1ccc(S(=O)(=O)c2c(O)c(C)cc(NS(=O)(=O)c3ccc(Cl)cc3)c2C(C)C)cc1 | inconclusive: -0.0459% [signal inhibitor] | – |
| Cc1ccc2c(c1)C(c1ccccc1)N(C(=O)c1ccc(S(=O)(=O)N3CCCC3)cc1)CC(=O)N2 (centres undefined) | inconclusive: 0.728% [signal inhibitor] | – |
| Nc1nc(NC(=O)c2cccnc2)nn1-c1ccccc1 | – | inconclusive: 25.1 µM [signal inhibitor, partial curve] |
| COc1ccc2sc(N(Cc3cccnc3)C(=O)c3cccs3)nc2c1 | inconclusive: 19% [signal inhibitor] | – |
| NC(=O)c1ccccc1NS(=O)(=O)c1cccs1 | inactive | – |
| COc1ccc(-c2nn(-c3ccccc3)cc2C(=O)Nc2nc(CC(C)=O)ns2)cc1 | inconclusive: 1.32% [signal inhibitor] | – |
| Cc1ccc(-n2ncc3c(NC4CCCC4)ncnc32)cc1 | inactive | – |
| CCOC(=O)/C(C#N)=C/c1ccc(-c2ccccc2)o1 | inconclusive: -1.47% [signal inhibitor] | – |
| O=C(OCC(=O)N(C1CCCCC1)C1CCCCC1)c1ccncc1 | inconclusive: 1.97% [signal inhibitor] | – |
| FC(F)(F)c1ccc(N2CCOCC2)c(Nc2nc3ccccc3n3cnnc23)c1 | inconclusive: 6.97% [signal inhibitor] | – |

| Structure (SMILES) | IkBa stabilization activation | Potency |
| --- | --- | --- |
| Cc1cc(NC(=O)CSc2ccc(-c3nc4cc(C)c(C)cc4[nH]3)cn2)no1 | inactive | – |
| Cc1ccc(NC(=O)c2cccc(Cl)c2)nc1 | inactive | – |
| CCn1cc(C(=O)NCc2cccnc2)c2cc(OC)c(OC)cc2c1=O | inactive | – |
| Nc1c2c(nc3ccccc13)CCC[C@H]2O | inactive | – |
| CC1CCn2c(nc3cc(C(=O)NCCc4ccccc4)ccc32)C1 (centres undefined) | inactive | – |
| Clc1ccc(Cl)c(Cl)c1Cl | inactive | – |
| COC(=O)c1ccccc1NC(=O)CCC(=O)N1CC(C)Sc2ccccc21 (centres undefined) | inconclusive: 6.12% [signal inhibitor] | – |
| COC(=O)C(NC(=O)CCc1c(C)nc2cc(-c3cccc(F)c3)nn2c1C)C(C)C (centres undefined) | inconclusive: 17.6% [signal inhibitor] | – |
| CCC(Cc1ccccc1)NC(=O)CCS(=O)(=O)c1cc2c(cc1Cl)NC(=O)CO2 (centres undefined) | inconclusive: -1.63% [signal inhibitor] | – |
| O=C(Cn1cnc2ccccc2c1=O)c1ccc2c(c1)OCCO2 | inactive | – |
| CCOc1ccc2c(c1)c(=O)c(C(=O)c1ccc3c(c1)OCO3)cn2Cc1cccc(F)c1 | inconclusive: 2.94% [signal inhibitor] | – |
| CCOc1ccc(-n2c(C)nc3cc(C(=O)NCc4ccc(C)cc4)ccc32)cc1 | inconclusive: 0.718% [signal inhibitor] | – |
| COC(=O)Nc1nc2ccc(C(=O)c3ccccc3)cc2[nH]1 | inconclusive: 5.41% [signal activator] [at 25.6 µM, scaled: untreated 0%, proteasome inhibitor 100%] | – |
| CCn1c(=O)cc(SCC(=O)Nc2cc(Cl)ccc2OC)c2ccccc21 | inconclusive: -0.263% [signal inhibitor] | – |
| Cc1ccc(C(=O)Nc2nnc(S(=O)(=O)N(C)Cc3ccc(F)cc3)s2)cc1 | inconclusive: -1.07% [signal inhibitor] | – |
| CCOc1ccc(-c2nnc(SCC(=O)Oc3ccccc3)o2)cc1 | inconclusive: 0.899% [signal inhibitor] | – |
| O=C(CCCCCN1C(=O)c2ccccc2C1=O)Nc1ccc(S(=O)(=O)N2CCCCC2)cc1 | inconclusive: 2.72% [signal inhibitor] | – |
| COc1cc2c(cc1OC)-c1cc(N3CCCc4ccccc43)nc(=O)n1CC2 | inactive | – |
| CSc1ccc(NC(=O)NCCCN2CCN(c3ccccc3F)CC2)cc1 | inconclusive: -1.79% [signal inhibitor] | – |
| CC1CCCN(c2nc(-c3ccccc3O)nc3ccccc23)C1 (centres undefined) | inconclusive: 7.37% [signal inhibitor] | – |
| O=c1oc2c(CN3CCCCC3)c(O)ccc2cc1-c1nc2ccccc2[nH]1 | inactive | – |
| CCc1cccc(NC(=O)CSc2n[nH]c(-c3ccccc3Cl)n2)c1 | inconclusive: -1.42% [signal inhibitor] | – |
| O=C(Nc1ccc2nc(SCCOc3ccccc3Cl)sc2c1)c1ccco1 | inconclusive: 2.6% [signal inhibitor] | – |
